The list shows a part of the results. At the low end of the ranking, values are background and their order means little.

Here are results for 74 sequences from publication PMC5892938.

This assay deals with GST-SBP-SLBP (stem-loop binding protein) (UniProt Q14493). As to the kind of experiment: targeted RNA Bind-n-Seq.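 Also: DESeq read counts versus GST-SBP nonspecific binding control pulldown.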 As to conditions: RBNS binding buffer: 25 mM Tris pH 7.5, 150 mM KCl, 3 mM MgCl2, 0.1% Tween, 0.5 mg/mL BSA, 1 mM DTT; 27 nM protein, 750 pM RNA pool; temperature not stated; high values mean tight binding.
For the sequence “GGUCACGUCUCAAUCAACUCAUAAGAGGGGGGGAAAACCCCUUUACCCUCCAAAUCAACAGCUCGCAGUCAAG”, the binding signal (log2 fold change) is 0.0295. Turning to “GGUCACGUCUCAAUCAACUCUUUCUCCAGGGAAACCCCUGGUUUAUUCAACAGCUCGCAGUCAAG”, the binding signal (log2 fold change) worked out at 0.149. Turning to “GGUCACGUCUCAAUCAACUCAACAGAGGGGGGGAAAACCCCUUUACCCUCCCAUUCAACAGCUCGCAGUCAAG”, the binding signal (log2 fold change) turned out to be 0.0223. Take “GGUCACGUCUCAAUCAACUCAUUCGCAGGAGUUUACUCCUGGUUAUUCAACAGCUCGCAGUCAAG”: the binding signal (log2 fold change) was -0.111. Take “GGUCACGUCUCAAUCAACUCAAUCUCCAGGGAAAUCCCUGGCAUUUUCAACAGCUCGCAGUCAAG”: the binding signal (log2 fold change) came out at 0.0585.

For the sequence “GGUCACGUCUCAAUCAACUCAUCUCCAGGAGUUUGCUCCUGCUUUCUCAACAGCUCGCAGUCAAG”, the binding signal (log2 fold change) is 0.191.

With “GGUCACGUCUCAAUCAACUCAAACGAGGGGGGGAAAACCCCUUUACCCUCUACCUCAACAGCUCGCAGUCAAG”, the binding signal (log2 fold change) worked out at 0.124. On to “GGUCACGUCUCAAUCAACUCAUCCUCCAGGGAAAACCCUGGCUUAUUCAACAGCUCGCAGUCAAG”, for which the binding signal (log2 fold change) is -0.175. With “GGUCACGUCUCAAUCAACUCACACGAGGGGGGGAAAACCCCUUUACCCUCAUCCUCAACAGCUCGCAGUCAAG”, the binding signal (log2 fold change) came to 0.453. In the case of “GGUCACGUCUCAAUCAACUCAUCCCCCAGGGAAAUCCCUGGCUAUCUCAACAGCUCGCAGUCAAG”, the binding signal (log2 fold change) is -0.029. As for “GGUCACGUCUCAAUCAACUCAUCUCCCAGGGAAAGCCCUGGCUAUCUCAACAGCUCGCAGUCAAG”, the binding signal (log2 fold change) is -0.0945.

Take “GGUCACGUCUCAAUCAACUCAAUCUCAGGAGUUUUCUCCUGCUUAGUCAACAGCUCGCAGUCAAG”: the binding signal (log2 fold change) worked out at 0.101. With “GGUCACGUCUCAAUCAACUCUACUUCCAGGGAAACCCCUGGUUAACUCAACAGCUCGCAGUCAAG” the figure was 0.28. Consider “GGUCACGUCUCAAUCAACUCUACUUCCAGGGAAAGCCCUGGUUUUUUCAACAGCUCGCAGUCAAG”, for which the binding signal (log2 fold change) is -0.408. For “GGUCACGUCUCAAUCAACUCUAUCUCCAGGGAAAACCCUGGCUAAUUCAACAGCUCGCAGUCAAG”, the binding signal (log2 fold change) is 0.158. Regarding “GGUCACGUCUCAAUCAACUCUCACGAGGGGGGGAAAACCCCUUUACCCUCUCAAUCAACAGCUCGCAGUCAAG”, the binding signal (log2 fold change) was -0.16.

Turning to “GGUCACGUCUCAAUCAACUCCAACGAGGGGGGGAAAACCCCUUUACCCUCAUAAUCAACAGCUCGCAGUCAAG”, the binding signal (log2 fold change) was found to be 0.0269. As to “GGUCACGUCUCAAUCAACUCUAUCUCAGGAGUUUUCUCCUGUUAAUUCAACAGCUCGCAGUCAAG”, the binding signal (log2 fold change) was -0.0443. With “GGUCACGUCUCAAUCAACUCAUCCUCAGGAGUUUUCUCCUGCAAACUCAACAGCUCGCAGUCAAG” the figure was 0.236; with “GGUCACGUCUCAAUCAACUCUUCCUCAGGAGUUUUCUCCUGUUUUCUCAACAGCUCGCAGUCAAG”, -0.037; with “GGUCACGUCUCAAUCAACUCUAUCCCCAGGGAAACCCCUGGUUAUCUCAACAGCUCGCAGUCAAG”, -0.0975. Regarding “GGUCACGUCUCAAUCAACUCAAUUUCAGGAGUUUUCUCCUGUUUACUCAACAGCUCGCAGUCAAG”, the binding signal (log2 fold change) was determined as 0.11. For the sequence “GGUCACGUCUCAAUCAACUCCUUAGAGGGGGGGAAAACCCCUUUGCCCUCGAUAUCAACAGCUCGCAGUCAAG”, the binding signal (log2 fold change) was 0.202. With “GGUCACGUCUCAAUCAACUCUACUUCCAGGGAAAACCCUGGUUUUCUCAACAGCUCGCAGUCAAG”, the binding signal (log2 fold change) stood at 0.0483. The value for “GGUCACGUCUCAAUCAACUCACUAGAGGGGGGGAAAACCCCUUUACCCUCACAUUCAACAGCUCGCAGUCAAG” was -0.428; that for “GGUCACGUCUCAAUCAACUCAUCUCCCAGGGAAAUCCCUGGUUUUUUCAACAGCUCGCAGUCAAG” was 0.155; that for “GGUCACGUCUCAAUCAACUCAACUCCAGGAGUUUCCUCCUGUUAACUCAACAGCUCGCAGUCAAG” was 0.0588. With “GGUCACGUCUCAAUCAACUCUUUCUCAGGAGUUUACUCCUGUAUAUUCAACAGCUCGCAGUCAAG” the figure was 0.355; with “GGUCACGUCUCAAUCAACUCAUUCCCCAGGGAAAUCCCUGGUAUAUUCAACAGCUCGCAGUCAAG”, 0.00583.

For the sequence “GGUCACGUCUCAAUCAACUCUUUUCCAGGAGUUUCCUCCUGUAAUCUCAACAGCUCGCAGUCAAG”, the binding signal (log2 fold change) turned out to be 0.0714. In the case of “GGUCACGUCUCAAUCAACUCAAUCUCCAGGGAAAACCCUGGCUUAUUCAACAGCUCGCAGUCAAG”, the binding signal (log2 fold change) amounted to 0.193. Turning to “GGUCACGUCUCAAUCAACUCUUUUUCCAGGGAAACCCCUGGUUUACUCAACAGCUCGCAGUCAAG”, the binding signal (log2 fold change) is -0.148.

Consider “GGUCACGUCUCAAUCAACUCUUAGGAGGGGGGGAAAACCCCUUUACCCUCAACUUCAACAGCUCGCAGUCAAG”, for which the binding signal (log2 fold change) was -0.145.

For “GGUCACGUCUCAAUCAACUCAUCCUCAGGAGUUUUCUCCUGCAAUUUCAACAGCUCGCAGUCAAG”, the binding signal (log2 fold change) stood at 0.0218. With “GGUCACGUCUCAAUCAACUCAUCUUCAGGAGUUUUCUCCUGUAAACUCAACAGCUCGCAGUCAAG” the figure was -0.102; with “GGUCACGUCUCAAUCAACUCCUCAGAGGGGGGGAAAACCCCUUUACCCUCCCAUUCAACAGCUCGCAGUCAAG”, 0.356.

With “GGUCACGUCUCAAUCAACUCUUACGAGGGGGGGAAAACCCCUUUACCCUCCAAUUCAACAGCUCGCAGUCAAG”, the binding signal (log2 fold change) was -0.0842. With “GGUCACGUCUCAAUCAACUCUACAGAGGGGGGGAAAACCCCUUUACCCUCCAAUUCAACAGCUCGCAGUCAAG” the figure was -0.103. On to “GGUCACGUCUCAAUCAACUCUUCCUCAGGAGUUUUCUCCUGUUUUUUCAACAGCUCGCAGUCAAG”, for which the binding signal (log2 fold change) was 0.00209. For the sequence “GGUCACGUCUCAAUCAACUCCUUAGAGGGGGGGAAAACCCCUUUGCCCUCACAUUCAACAGCUCGCAGUCAAG”, the binding signal (log2 fold change) came out at 0.115. In the case of “GGUCACGUCUCAAUCAACUCUAGUCCCAGGGAAAUCCCUGGUAAAUUCAACAGCUCGCAGUCAAG”, the binding signal (log2 fold change) was found to be 0.0264. As to “GGUCACGUCUCAAUCAACUCUUUUUCCAGGGAAAUCCCUGGCAUUUUCAACAGCUCGCAGUCAAG”, the binding signal (log2 fold change) is 0.102. In the case of “GGUCACGUCUCAAUCAACUCUUUCUCCAGGGAAACCCCUGGCUUACUCAACAGCUCGCAGUCAAG”, the binding signal (log2 fold change) amounted to 0.295. The value for “GGUCACGUCUCAAUCAACUCUUAAGAGGGGGGGAAAACCCCUUUACCCUCCAUUUCAACAGCUCGCAGUCAAG” was -0.201; that for “GGUCACGUCUCAAUCAACUCUUCGUCCAGGGAAACCCCUGGUUUUUUCAACAGCUCGCAGUCAAG” was -0.233. “GGUCACGUCUCAAUCAACUCUACUCCCAGGGAAAGCCCUGGCAAAUUCAACAGCUCGCAGUCAAG”: the binding signal (log2 fold change) is -0.272.

Regarding “GGUCACGUCUCAAUCAACUCAGUUUCAGGAGUUUCCUCCUGCUAAUUCAACAGCUCGCAGUCAAG”, the binding signal (log2 fold change) stood at 0.0707.

Take “GGUCACGUCUCAAUCAACUCAGUCCCAGGAGUUUCCUCCUGCUUUCUCAACAGCUCGCAGUCAAG”: the binding signal (log2 fold change) is -0.0666.

In the case of “GGUCACGUCUCAAUCAACUCAAUCUCCAGGGAAAGCCCUGGCAAUCUCAACAGCUCGCAGUCAAG”, the binding signal (log2 fold change) was -0.207. With “GGUCACGUCUCAAUCAACUCAUUUCCAGGAGUUUACUCCUGCUUAUUCAACAGCUCGCAGUCAAG”, the binding signal (log2 fold change) was 0.185. As to “GGUCACGUCUCAAUCAACUCUAAAGAGGGGGGGAAAACCCCUUUGCCCUCCAAUUCAACAGCUCGCAGUCAAG”, the binding signal (log2 fold change) was -0.281. The value for “GGUCACGUCUCAAUCAACUCUACUCCAGGAGUUUCCUCCUGCUUUCUCAACAGCUCGCAGUCAAG” was -0.135; that for “GGUCACGUCUCAAUCAACUCUUCGUCAGGAGUUUCCUCCUGCAUUUUCAACAGCUCGCAGUCAAG” was -0.0657; that for “GGUCACGUCUCAAUCAACUCUUUCUCCAGGGAAAUCCCUGGUAAACUCAACAGCUCGCAGUCAAG” was -0.0145.

“GGUCACGUCUCAAUCAACUCUUCCCCAGGAGUUUUCUCCUGCUAUUUCAACAGCUCGCAGUCAAG”: the binding signal (log2 fold change) is -0.196. Turning to “GGUCACGUCUCAAUCAACUCAUCGUCCAGGGAAAUCCCUGGUUUUCUCAACAGCUCGCAGUCAAG”, the binding signal (log2 fold change) was -0.319. Consider “GGUCACGUCUCAAUCAACUCUACGGCAGGAGUUUACUCCUGGAAAUUCAACAGCUCGCAGUCAAG”, for which the binding signal (log2 fold change) was -0.036.

For the sequence “GGUCACGUCUCAAUCAACUCCUCAGAGGGGGGGAAAACCCCUUUACCCUCCCAAUCAACAGCUCGCAGUCAAG”, the binding signal (log2 fold change) is -0.00956.

As to “GGUCACGUCUCAAUCAACUCAUUCCCCAGGGAAAUCCCUGGUAUUCUCAACAGCUCGCAGUCAAG”, the binding signal (log2 fold change) worked out at 0.149. “GGUCACGUCUCAAUCAACUCUUCCUCCAGGGAAACCCCUGGCUAUGUCAACAGCUCGCAGUCAAG”: the binding signal (log2 fold change) is 0.0825.

“GGUCACGUCUCAAUCAACUCCUUCGAGGGGGGGAAAACCCCUUUACCCUCAUUCUCAACAGCUCGCAGUCAAG”: the binding signal (log2 fold change) amounted to 0.0866.

For “GGUCACGUCUCAAUCAACUCUUCUUCCAGGGAAAACCCUGGUAAUCUCAACAGCUCGCAGUCAAG”, the binding signal (log2 fold change) came to 0.000133.

Consider “GGUCACGUCUCAAUCAACUCAUGUCCAGGAGUUUUCUCCUGCAAUUUCAACAGCUCGCAGUCAAG”, for which the binding signal (log2 fold change) is -0.0357. Turning to “GGUCACGUCUCAAUCAACUCUUUCUCAGGAGUUUACUCCUGCUUUUUCAACAGCUCGCAGUCAAG”, the binding signal (log2 fold change) is -0.0823. Regarding “GGUCACGUCUCAAUCAACUCAUUCUCCAGGGAAAACCCUGGUAUACUCAACAGCUCGCAGUCAAG”, the binding signal (log2 fold change) is 0.146. In the case of “GGUCACGUCUCAAUCAACUCUACUCCAGGAGUUUCCUCCUGUAUUCUCAACAGCUCGCAGUCAAG”, the binding signal (log2 fold change) was 0.0328. With “GGUCACGUCUCAAUCAACUCUCUAGAGGGGGGGAAAACCCCUUUACCCUCCAAAUCAACAGCUCGCAGUCAAG”, the binding signal (log2 fold change) is -0.192. The value for “GGUCACGUCUCAAUCAACUCAUUCUCAGGAGUUUUCUCCUGUUAACUCAACAGCUCGCAGUCAAG” was 0.139; that for “GGUCACGUCUCAAUCAACUCAUCUUCCAGGGAAAGCCCUGGUUAAUUCAACAGCUCGCAGUCAAG” was -0.252; that for “GGUCACGUCUCAAUCAACUCAUUUUCAGGAGUUUUCUCCUGUUUUCUCAACAGCUCGCAGUCAAG” was 0.0257.

With “GGUCACGUCUCAAUCAACUCUACUUCAGGAGUUUACUCCUGCUUUCUCAACAGCUCGCAGUCAAG”, the binding signal (log2 fold change) was 0.207.

For “GGUCACGUCUCAAUCAACUCUUCCCCCAGGGAAACCCCUGGCUAUCUCAACAGCUCGCAGUCAAG”, the binding signal (log2 fold change) came out at 0.207. With “GGUCACGUCUCAAUCAACUCAUCCUCCAGGGAAACCCCUGGCAUUUUCAACAGCUCGCAGUCAAG” the figure was 0.129; with “GGUCACGUCUCAAUCAACUCAGUCUCAGGAGUUUUCUCCUGCAAAUUCAACAGCUCGCAGUCAAG”, 0.0458.
